# Test results as given in PubChem BioAssay AID2546 (National Center for Advancing Translational Sciences (NCATS), 2010).
# Out of some 310,000 compounds screened, about 11,000 (3.5%) were called active. Inconclusive means that the source gave no clear call. Such entries were picked first, then a sample of the others. Calls come from the whole dose curve; as a rule, active = well fitted inhibition curve with a large enough effect; inconclusive = small, poorly fitted or top-dose-only effect, or effect the other way; inactive = flat fitted curve, though single readings scatter. No potency is given beside an inconclusive call; the fits are too rough.
# Assay: VP16 counterscreen qHTS for inhibitors of ROR gamma transcriptional activity;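 note: Gal4-VP16 expression switched on by copper sulfate through the metallothionein promoter; nearly all actives have a fitted effect of over 50% in size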
# Conditions: Drosophila S2 Gal4-VP16 UAS-luciferase, luminescence, 20 h; series mostly up to 53.6 µM
# Potency is the fitted concentration of half-maximal effect; tags give direction and shape of the fitted curve.
row,Compound,Potency
1,Cc1c(C(=O)OC(C)C)sc(N)c1C(=O)OC(C)C,"inconclusive [inhibitor, single point]"
2,CN1C(=O)/C(=C/c2cccc([N+](=O)[O-])c2)C(=O)N1c1ccccc1,"inconclusive [inhibitor, single point]"
3,Clc1ccc2c(NCc3ccco3)ncnc2c1,"inconclusive [inhibitor, single point]"
4,CSc1cccc(NC(=S)NN(C)C)c1,active: 10 µM
5,Cc1nc2c(F)c(F)c(C(F)(F)F)c(F)c2[nH]1,"inconclusive [inhibitor, partial curve, poor fit]"
6,COc1cccc(-c2cc(C(=O)Nc3ccc([N+](=O)[O-])cn3)c3ccccc3n2)c1,"inconclusive [activator, single point]"
7,Cc1ccc(/C=C/C(=O)OCC(=O)NCCN2C(=O)CSC2=O)o1,inactive
8,NS(=O)(=O)c1nn2cc(-c3ccccc3)nc2s1,"inconclusive [inhibitor, single point]"
9,CCCCn1c(O)c(N=NC(=O)c2ccco2)c2ccccc21,inactive
10,CN(Cc1cccnc1)C(=O)c1cc(COc2ccc3c(c2)CCCC3)on1,"inconclusive [inhibitor, single point]"
11,CC(NC(=O)/C(C#N)=C1\N=C(NC(=O)c2ccco2)c2ccccc21)c1ccccc1 (stereo not given),"inconclusive [inhibitor, single point]"
12,CCc1nn2cc(C(=O)c3cc(Cl)ccc3O)cnc2c1-c1ccc(F)cc1,"inconclusive [inhibitor, single point]"
13,COc1ccccc1Nc1nnc(SCc2cc(=O)n3cc(C)ccc3n2)s1,"inconclusive [activator, single point]"
14,CN(Cc1ccco1)c1cc(-c2ccccc2Cl)ncn1,"inconclusive [activator, single point]"
15,Oc1ccc(-c2nc3ccccc3s2)cc1,"inconclusive [inhibitor, single point]"
16,CCOCCCNC(=S)N1CCN(Cc2ccco2)CC1,inactive
17,O=C(/C=C/c1ccccc1)c1ccc(O)cc1,"inconclusive [inhibitor, single point]"
18,Cc1cc(C)n(-c2nnc(N3CCN(c4ccccc4)CC3)nn2)n1,"inconclusive [activator, single point]"
19,O=C(NC(=S)Nc1ccc(Br)cc1)C1CCCCC1,active: 7.94 µM
20,CN1/C(=C\C(=O)COc2ccc3c(c2)OCO3)C(C)(C)c2ccccc21,"inconclusive [inhibitor, single point]"
21,CCOc1ccc(-c2cc(CCCC(=O)NCc3cccnc3)no2)cc1,"inconclusive [inhibitor, full curve]"
22,COc1ccc(-c2nnc(NC(=O)c3cc(Cl)ccc3Cl)o2)cc1,active: 1.41 µM
23,Cc1cccc(S(=O)(=O)Nc2ccc(C)c3c2OC(C)(C)C3)c1,"inconclusive [inhibitor, single point]"

row,Compound,Potency
1,Cc1oncc1C(=O)Nc1cccc(C#N)c1,inactive
2,COCCCn1c(SCc2ccc(OC)cc2)nc2cc(OC)c(OC)cc2c1=N,"inconclusive [inhibitor, single point]"
3,Cc1ccccc1-n1nnnc1Sc1nnnn1-c1ccccc1,"inconclusive [inhibitor, partial curve]"
4,COC(=O)C(C(=O)NCC1CCCO1)C1CCCCCC1 (stereo not given),inactive
5,NS(=O)(=O)c1cc(C(=O)OCC(=O)c2ccc3c(c2)OCCO3)ccc1Cl,"inconclusive [inhibitor, single point]"
6,Cc1ccc(S(=O)(=O)Nc2ccc(=O)n(Cc3ccc(Cl)c(Cl)c3)c2)cc1,"inconclusive [inhibitor, single point]"
7,COc1ccc(OC)c(S(=O)(=O)Nc2ccc(C)c(C)c2)c1,"inconclusive [inhibitor, single point]"
8,C=CCn1c(-c2cc(-c3ccccc3)sc2N)n[nH]c1=S,active: 10 µM
9,COc1ccc(/C=C\C(=O)c2c(O)ccc3c(C)cc(=O)oc23)cc1OC,"inconclusive [inhibitor, single point]"
10,CCOc1cc(CNCCc2c[nH]c3ccccc23)cc(Cl)c1OCC(N)=O,"inconclusive [inhibitor, single point]"
11,N=c1ccn(Cc2cccc(F)c2)cc1,active: 10 µM
12,COc1cc(C(=O)Nc2ccc(N(C)C)cc2)cc(OC)c1OC,inactive
13,O=c1cc2oc3cc(O)c(O)cc3c(-c3ccccc3[N+](=O)[O-])c-2cc1O,"inconclusive [inhibitor, partial curve]"
14,COc1ccc(Nc2ccccc2N)cc1,"inconclusive [inhibitor, single point]"
15,COc1ccc(N=C2NC(=O)/C(=C\C=C\c3ccco3)S2)cc1,"inconclusive [activator, single point]"
16,COc1ccccc1Cn1c(=O)c2ccccc2n2c(Sc3ncnc4sccc34)nnc12,"inconclusive [inhibitor, single point]"
17,O=C(N/N=C/C1CC=CCC1)c1cc(Br)ccc1O (stereo not given),"inconclusive [inhibitor, single point]"
18,COc1ccc(-c2nc(CSCC(=O)N3CCN(c4cccc(C)c4)C(C)C3)c(C)o2)cc1OC (stereo not given),"inconclusive [inhibitor, single point]"
19,Cc1ccc(C)c(NC(=S)NC(NC(=O)Cc2ccccc2)C(Cl)(Cl)Cl)c1 (stereo not given),"inconclusive [inhibitor, single point]"
20,CCN1c2ccccc2-c2nc3ccccc3n2C1c1ccco1 (stereo not given),"inconclusive [inhibitor, single point]"
21,O=C(Nc1ccc(Br)cc1)c1ccc(F)c(S(=O)(=O)N2CCN(c3ccccn3)CC2)c1,"inconclusive [inhibitor, single point]"
22,Cc1noc(C)c1-c1ccc2ncnc(NCc3ccc4[nH]ccc4c3)c2c1,inactive
